Measured values taken from publication PMC10726135.
This is one part of the list. At the low end of the ranking the order means little. Measured with an extract: partners may take part in the binding.

These sequences were tested against T1, HNF4alpha2 (COS-7 nuclear extract) (UniProt P41235) (assay: protein-binding microarray). Settings: COS-7 nuclear extract on double-stranded Agilent 4x180k PBM; binding buffer, salt, pH and temperature not given; high values mean tight binding; double strand, one strand shown; sequences stand for … in …GCCTAGGGAGATTAGAGTATCGGTCGA.
T1 sequence: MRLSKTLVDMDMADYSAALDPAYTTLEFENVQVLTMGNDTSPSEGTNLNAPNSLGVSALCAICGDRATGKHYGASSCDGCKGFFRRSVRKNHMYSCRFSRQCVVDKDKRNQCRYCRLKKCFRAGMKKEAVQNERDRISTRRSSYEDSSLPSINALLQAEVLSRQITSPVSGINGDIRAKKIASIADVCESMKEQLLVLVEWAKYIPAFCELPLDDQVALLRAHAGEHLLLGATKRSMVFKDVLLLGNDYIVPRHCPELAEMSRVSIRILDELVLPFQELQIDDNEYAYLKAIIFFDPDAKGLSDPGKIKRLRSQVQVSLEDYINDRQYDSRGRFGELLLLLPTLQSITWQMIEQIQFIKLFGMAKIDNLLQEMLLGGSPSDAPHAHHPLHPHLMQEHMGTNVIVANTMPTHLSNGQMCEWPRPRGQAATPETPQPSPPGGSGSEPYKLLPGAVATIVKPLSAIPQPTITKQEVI
For CATTGCCACACTATTTACACAGCTGATGGA, the binding signal (log2 normalized intensity) was -0.595. For AGGCCAAACAAAAATATGGACTTTGGAATT, the binding signal (log2 normalized intensity) was 7.99. In the case of CTCCAGAGTCCAAACTGGGACCTGTGACAC, the binding signal (log2 normalized intensity) is reported as 1.62. For GATGCTAGGTTTGTGAGTCCAAAGGTCAGC, the binding signal (log2 normalized intensity) was 9.14. Work on GTAGCTCAAACAGTCTAAAAACCATAGACA yielded a binding signal (log2 normalized intensity) of -1.36. CTGCTTGGGAGAACCTGTGCTTCTGGTTCT was tested, and the binding signal (log2 normalized intensity) was 0.756. CATTTGCTTGACCCGGGTACTGGAAACTGG showed a binding signal (log2 normalized intensity) of 1.58. TACGCAACTGAAATTGCACTCTTTGACTAA was tested, and the binding signal (log2 normalized intensity) was -0.747. With ACTTCAAAAGCCGGGGAAAGGGAAAAAGGG the binding signal (log2 normalized intensity) was -1.07. GCAGAGCAGTTTAGAGAAAGGGTCAAAGGT showed a binding signal (log2 normalized intensity) of 5.29. With GCTAGAGAAAAAGAAAAGCCTTGTGGCAGT the binding signal (log2 normalized intensity) was -1.15. Work on GGTGGTTTGGGTAATAACATGTAATTGCAT yielded a binding signal (log2 normalized intensity) of 0.957. GTACATTGCACCCTCCAGGAGCCCCTTACC was tested, and the binding signal (log2 normalized intensity) was 1.28. TCTAATGAACTGATTAGAACATTAAGTCCA was tested, and the binding signal (log2 normalized intensity) was 1.25. In the case of TCCTGGGAGAACAAACCTTATCTCTCAAGG, the binding signal (log2 normalized intensity) is reported as -0.715. CTTATCCAAAGCTGCTGGGAGGTAGCTCAA showed a binding signal (log2 normalized intensity) of -0.982. Work on CAAAGTACATATTTACTTACCTTTTCTAAT yielded a binding signal (log2 normalized intensity) of 1.42. Work on CCTTGTTCTCAGAGATCAAAGGTGAGTGGG yielded a binding signal (log2 normalized intensity) of 3.48. GGCGTCTTATCAGCCCCCATGTCAGGGAAG was tested, and the binding signal (log2 normalized intensity) was 2.64. For ACCTAGAGGAGAGAGTAAATAATTGATGAA, the binding signal (log2 normalized intensity) was -1.14. AGGCTAGTAACACTCACATTCCACGTTTGG showed a binding signal (log2 normalized intensity) of 1.07. For CAAGCTGACAAACATGTATCAGTGATAGAC, the binding signal (log2 normalized intensity) was 0.561. CTAAAGGAAGGGAGGTGAGTGCTAGCATTG gave a binding signal (log2 normalized intensity) of -1.12. ACAGCAGGCTCACAAGATTGCATTCTTTGA gave a binding signal (log2 normalized intensity) of -1.14. Work on CTCTCCTATTCAGGTATTTGCTCTGTGATA yielded a binding signal (log2 normalized intensity) of 0.775. Sequence CTGCTTCCAAAACATTGTAGAATTATCCAG has a binding signal (log2 normalized intensity) of -0.609. With CTGTTCGATGTATACAGTATCTATAGTTAT the binding signal (log2 normalized intensity) was 1.28. GTCTTGAGCGCAAATGATCAAAGGTCGGTT showed a binding signal (log2 normalized intensity) of 5.6. TTCAGTCTTTGTCTTAGCCTGCTCTTTTCC was tested, and the binding signal (log2 normalized intensity) was 1.59. ATCTTAGCTTCAGCTTTGCTTAGACCGGCA showed a binding signal (log2 normalized intensity) of -0.98. Work on CAAAGGTTGGACTGAGGACCACATGAGTAA yielded a binding signal (log2 normalized intensity) of -0.0147. AAGGAAACTGCTTGGGCCCCTCCCTCACAC showed a binding signal (log2 normalized intensity) of 2.15. CTTGCCCAAGGGCATGGGAAGCAGTGAGGG was tested, and the binding signal (log2 normalized intensity) was -1.19. CAACGGTGAGTCAAGCACTTCTCACATCAC gave a binding signal (log2 normalized intensity) of -1.08. For GATAGGCAAAGTGGCTAGGACCTTTGAACC, the binding signal (log2 normalized intensity) was 6.41. For TTCCTCCCACTCTGACATCCCCCTTTCTCT, the binding signal (log2 normalized intensity) was 3.26. CCCCCATTTGGTAATGGGCCCCCATTACCA was tested, and the binding signal (log2 normalized intensity) was 3.87. For CTGAATGAGCTCTGGGGTCCTCTGCTGCCC, the binding signal (log2 normalized intensity) was 0.313. TATTTTAAGTTGCAATGCATGCTGCCAAAC was tested, and the binding signal (log2 normalized intensity) was -1.18. CCATCCTCCCACCTCAGCCTCTTGAGTAGC gave a binding signal (log2 normalized intensity) of 1.8. ACTTGGCTCACATGATTGTGGAGGATGGGA was tested, and the binding signal (log2 normalized intensity) was 0.412. In the case of TCATTTCTGCTTGCAACCAAAGGAGTCCTG, the binding signal (log2 normalized intensity) is reported as 0.346. For GATTAAAAGCACATAAGAGAAAAATCTTCA, the binding signal (log2 normalized intensity) was -1.06. With AAGGGTCAGCCTGCAAGTTAGGACAGCCCC the binding signal (log2 normalized intensity) was 1.15. In the case of TAAAAGGTAACATCAAAGCCAGGACTTCTA, the binding signal (log2 normalized intensity) is reported as -1.04. Work on CCTCCATTAACTAACCTTTGAACCAGATGG yielded a binding signal (log2 normalized intensity) of 4.77. ATGCAATTTCTGAGAGAGAAAGAGACAGAG was tested, and the binding signal (log2 normalized intensity) was -1.2. TCAGGTTTCAAATACTCCAGTCATTGTACA showed a binding signal (log2 normalized intensity) of 1.4. With CACTTTAGGTGCTCTTGGCTAAGACAGGGG the binding signal (log2 normalized intensity) was -0.552. CCTTTGTATATTCCCTTTGTATGGCAGGGG was tested, and the binding signal (log2 normalized intensity) was 2.35. In the case of GGACTTTGTGCAAATGGAAAATTGTAATCT, the binding signal (log2 normalized intensity) is reported as 2.01. In the case of TACAGTTCTGGAGGTGAGAAGCCTGAAATG, the binding signal (log2 normalized intensity) is reported as -1.02. GAAATGTAGTGACAGAAGGGAGAGTCCAAG showed a binding signal (log2 normalized intensity) of 0.403. AAGAATTCTTTCTCAAATATGTTTAACCTG was tested, and the binding signal (log2 normalized intensity) was 0.554. For TTAAGAAGTAGGTGTGCCTCCTCCATCTCC, the binding signal (log2 normalized intensity) was -0.669. In the case of ATAAGGCGTAGTTCAGAGAAAACGAGGCAC, the binding signal (log2 normalized intensity) is reported as -0.416. Sequence CGCTTTCATGAGATGAAAGCTTCTGCGGAA has a binding signal (log2 normalized intensity) of -0.524. In the case of TAAAGTCTACAAGTGGATATTCAGACCTCT, the binding signal (log2 normalized intensity) is reported as 0.192. In the case of CCCTTCCTGGCCAACATCCAGGCCTGGCAG, the binding signal (log2 normalized intensity) is reported as -1.17. TGCAAGTACGATTGGCTGGACATCTGGGAT was tested, and the binding signal (log2 normalized intensity) was 0.438. TGCTTTCTTATCTGGGGGCCATTCCTCTAT gave a binding signal (log2 normalized intensity) of 1.1. Work on TTAATGCCTGGGAACACAATAGGAATTCAA yielded a binding signal (log2 normalized intensity) of -1.06. For AGTCCAGCTGTGCCCCAGTCCTTCAGTCCT, the binding signal (log2 normalized intensity) was -0.997. ACTTAAAAGAAGCTACTAGCAAATCTGCCC gave a binding signal (log2 normalized intensity) of -1.17. For ATGACCCTAATGGGGTACTTGAACCCTACT, the binding signal (log2 normalized intensity) was 3.14. For CCAGTGGAATGCAAATATAGAAATAAAAGA, the binding signal (log2 normalized intensity) was -0.843. With TGCAGATAAGCCACGAGCCTGCCTGCTCCT the binding signal (log2 normalized intensity) was -1.32. With GTTCCAAACCTACACAGACCCTCTTTTCTT the binding signal (log2 normalized intensity) was -0.893. AGATGGATTACATGGGAGATAGAGCAGTGG gave a binding signal (log2 normalized intensity) of -1.07. For AACAGCTGTGCCATGCTTTTCAGTGCAAGG, the binding signal (log2 normalized intensity) was -0.983. GCGCCGGGGGGACGCGCTTGGGCGACGGAC was tested, and the binding signal (log2 normalized intensity) was -1.1. AGATACTATAATTAGAATCTGCAGGATCCC gave a binding signal (log2 normalized intensity) of -0.951. For ACATTGGAATGCGGGCTCCACCACTTGCTC, the binding signal (log2 normalized intensity) was -1.13.
